In paper PMC7718735:
These are yes or no findings as the source states them, for the method shown.

Target: T1, Lem2 MYTH bait (S. pombe) (UniProt Q10109)
T1 sequence: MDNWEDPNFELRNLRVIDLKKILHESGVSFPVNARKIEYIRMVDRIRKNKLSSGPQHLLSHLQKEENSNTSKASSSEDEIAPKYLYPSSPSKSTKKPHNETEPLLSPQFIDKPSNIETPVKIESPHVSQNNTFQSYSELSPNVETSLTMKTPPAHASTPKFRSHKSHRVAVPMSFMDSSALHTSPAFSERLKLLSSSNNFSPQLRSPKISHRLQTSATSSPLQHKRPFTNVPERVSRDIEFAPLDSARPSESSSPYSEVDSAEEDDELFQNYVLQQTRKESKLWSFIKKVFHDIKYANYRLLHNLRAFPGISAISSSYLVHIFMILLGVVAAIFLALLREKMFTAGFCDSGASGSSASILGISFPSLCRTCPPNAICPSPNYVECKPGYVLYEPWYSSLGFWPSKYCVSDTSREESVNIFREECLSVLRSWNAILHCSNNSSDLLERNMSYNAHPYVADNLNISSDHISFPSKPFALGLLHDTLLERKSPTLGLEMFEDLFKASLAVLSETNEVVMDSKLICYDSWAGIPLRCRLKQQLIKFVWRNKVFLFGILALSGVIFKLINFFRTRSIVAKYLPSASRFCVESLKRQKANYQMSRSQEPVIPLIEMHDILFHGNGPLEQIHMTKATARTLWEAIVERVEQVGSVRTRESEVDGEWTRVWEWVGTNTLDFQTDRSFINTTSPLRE
Experiment: two-hybrid; split-ubiquitin membrane yeast two-hybrid (MYTH) in S. cerevisiae; bait-Cub-LexA-VP16 strains mated with the arrayed Nub prey library, diploids spotted in quadruplicate on SD-leu-trp-ade-his with 25 mM 3-AT, imaged every 24 hr for 4 days; positive by a colony density cutoff

Binder | binding
Brl1 MYTH prey (protein, UniProt Q1MTQ0 1-692) MSVVNESRKRRRLIHSEKETRRLDLGEEDDLELFQKEAAWRRSREYEHLTVLEKKLYEYWESLVLKLDHYVAAALENHEQSFEELEKITASLYQPDDNLQTLDLSLAEFSLIKDAQNYLNKYASYFQAHEPTLQKLAKFGSFKLKETPNVHEWIDQRQVHFTSMINYRTSQLKLALLKRKLSFFREALNSAELEWKRVQQDQLTSASERSIENIADDIPASEPKAILENGEGCLNDNDNISKLKNNFQSQADLMQANINSKLDELSQKSTRAAQLYVDIMGITDERVSREPHYLELKGVLSSNEEKIESINRDLSSLFEDIQFFISQRTKRQKDIIDLKLACVKEKQQLIKTLESSLTQIRNERDSLVAKQQMQYTNNLFFDDMMLLLSNLSNARVAILEGYSNRLCIWDRIERSKTGEMNNVLDEKEEISASSALEKLIKNNSCLEAELPSMYAAFDQSQSRLLKKYEELETKEKKALEMHYEKARATQKYFAAMKARDILMTEKKTLKLAENKEHDYIGKLQEREHALTKYESSLKAELEVYKQIKEIYGKHSVEVLTEDKHLQVKQTKLTQKLEDLIESVQKSGEKLMIMHQKLFHLQEEHTILSIKASYNKKESHLINQAYETQEAQVYKGMLKCSVCNFSNWKSKLIPNCGHAFCSNCMEPFYEHKTSTCPQCETPFSVSDILTIHL | no binding
Raf2 MYTH prey (protein, UniProt O74560 1-636) MPPVRAEKKRKTDLIEQVCVTNKAGELVDLEDVLEYGPYSLTGILSSEKDEQEPLFDESIVLGYSIKISPVWTYNLKDVPEKETMSIWIVTPQRRYGILSPSSEYKAIYEQISEKNRLFYLIKTKFKDDMISGTLEDYDNYIEVLKEKLELPSCFQAILLVQKHIRFLLTQMVATSSLHVWSESPFFIRIRSSYEHLILQINKNIYNARQERKKSKLSSNNPSDNNTTMKSSLNQALTLINLPEQPFSISSPTATPQLGVVKRTSPLRFPLNDIWLSGLRIVDPNIESISLWKRIQVSTSPKHQRYISLQEVCSVIAQQLQITNLEALNKLSSHGETLLQIMHTAFTWRGTKLFNDIKHAIGFRSSVQQARSQFRGYCYDYLFMHCNNGEKTSLHLLRTLICMKLDFSNAQLAAKILFHFLLFDIGSGLSGSDYTYEQYINHSAVAFSFTEEIFEKNFVTVLPDFVKLFSISFGYWPAFSFYDELLKLLRNKYPKVYSSTPNLCDQVWLDRTNLFPCNRSTRSTLPYRPTKLLDLASASSCLSKKETDFKQDTGLYSYNLEKVEALKVSPDLQTGIWSCPVQNCLYFAVCDNPYKPSQVIYDHLLGHVDSKFIFKTPSNSVRSFTNKLEHIMYNIN | no binding
Pcu4 MYTH prey (protein, UniProt O14122 1-734) MPPEAKRIVVKGFDPRKSRQRQETYYVTMIDRLNMALQVVMAGLGLKTGYQELYSGVENLTRADQASRCFNILQHHMSSGIQLLKDSAESFIQLEGTETDTNACTVVVGCWNKWLERVEIVQNIFYYMDKTFLSHHPDYPTIEELSLSLFREKLMAVKNIQIPFLNSLLQSFENLHSSKSTDHAYLQDAMLMLHRTEMYSSVFVPMYLVMLSRFYDTESSQKIQELPLEEYLEYAMSSLEREDAYVEKFDIVRDKKSIRETVQRCLITSHLDTLTKGISQFIEKRDAHSCKLLYALLQFNHETEYLIQPWSDCLVDVGFKLVNDESKDDTLVQELLSFHKFLQVVVDESFLHDETLSYAMRKAFETFINGAKGSQREAPARLIAKYIDYLLRVGEQASGGKPLKEVFSEILDLFRYIASKDIFEAYYKLDIAKRLLLNKSASAQNELMLLDMLKKTCGSQFTHSLEGMFRDVNISKEFTSSFRHSKAAHNLHRDLYVNVLSQAYWPSYPESHIRLPDDMQQDLDCFEKFYLSKQVGKKISWYASLGHCIVKARFPLGNKELSISLFQACVLLQFNNCLGGEGISYQDLKKSTELSDIDLTRTLQSLSCARIRPLVMVPKSKKPSPDTMFYVNEKFTDKLYRVKINQIYLKEERQENSDVQEQVVRDRQFELQASIVRVMKQKEKMKHDDLVQYVINNVKDRGIPLVSDVKTAIEKLLEKEYLEREDNDIYTYVT | no binding
Chp1 MYTH prey (protein, UniProt Q10103 1-960) MVSVKPLPDIDSNEGETDADVYEVEDILADRVNKNGINEYYIKWAGYDWYDNTWEPEQNLFGAEKVLKKWKKRKKLIAKGLLEPFDAEDNEAKKMKREKEILRQQRQKRKSELTQLSQKVKEKFKKMRKKPARRIVTIANDEEEEDDQTMDEDAFERKSMQGELKERNLTDKTSTLSTSFGETSPDVNPFYLSEWPTVTDSILLSKSLSSDAIPLKNGEIKSTMLMPSDSDNSVPGIQNSNNLENTGAFVENANSPQSNTPLSTFRHSSPLSLSPVITSDNDVANSLFFSNSTPLPSSLKIKKEAPKLETHTILVSDNSGSLTKQDILSYFAFIKGNIEVFFLKSPKKDKVCNMAYIQFDSIEQAKLAYDKGHPSWHVTLVKGKISTDMEECKVSKSILKTTPSKKANARSVSFTQTTTDTLSESEKFASNVDLDENFDFNVNVTNEDAKQLKKSVIGSSWTTVNNDWNSVSKSDQTFENDGASKVVPAGNITLNSDNSLHHSISESEDLSSASTLSDYFRFVLRVGKSLYYAGELSFDISKLKAETEHQQLLRSLVSCKQVDVLRFVTSQYLEVFGTCLTKVLSGSLCIRSDVDMTHFKNILNRGNGAGIVLGSNYTLLLFTEDNNALMNLYDCQGQSNSPFWMVIFEPLESILVEWSAKNLRPKKPYHKSQSYLSYLLQLGHIDLHKIGAFQATQILIVSKQPSPEAEELEDTFREAAIPTFRGLEIPESLFLSQNVFVFLNVSLEDDFDQLQFLTLAKRKSCKFFLFGLSLPLKSPNDSHVGTDFKKNNEPLDKLTYSQYLRPMFPKGGVVSVTLSALIKTPRLLELISPFLEIKKDSWILILPPSIVDMVKSYFVTNNPDKSLLEIQNLLNTLQRYLTNPALKNVTLYQDWDIVIDDSADVSLASTLQLYQKKNYDKYRRFVLIHELKNELTPVNGLDIVDYDEFKETFMRAIGLK | no binding
Swi6 MYTH prey (protein, UniProt P40381 1-328) MKKGGVRSYRRSSTSKRSVIDDDSEPELPSMTKEAIASHKADSGSSDNEVESDHESKSSSKKLKENAKEEEGGEEEEEDEYVVEKVLKHRMARKGGGYEYLLKWEGYDDPSDNTWSSEADCSGCKQLIEAYWNEHGGRPEPSKRKRTARPKKPEAKEPSPKSRKTDEDKHDKDSNEKIEDVNEKTIKFADKSQEEFNENGPPSGQPNGHIESDNESKSPSQKESNESEDIQIAETPSNVTPKKKPSPEVPKLPDNRELTVKQVENYDSWEDLVSSIDTIERKDDGTLEIYLTWKNGAISHHPSTITNKKCPQKMLQFYESHLTFRENE | no binding
Lem2 MYTH prey (protein, UniProt Q10109 1-688) MDNWEDPNFELRNLRVIDLKKILHESGVSFPVNARKIEYIRMVDRIRKNKLSSGPQHLLSHLQKEENSNTSKASSSEDEIAPKYLYPSSPSKSTKKPHNETEPLLSPQFIDKPSNIETPVKIESPHVSQNNTFQSYSELSPNVETSLTMKTPPAHASTPKFRSHKSHRVAVPMSFMDSSALHTSPAFSERLKLLSSSNNFSPQLRSPKISHRLQTSATSSPLQHKRPFTNVPERVSRDIEFAPLDSARPSESSSPYSEVDSAEEDDELFQNYVLQQTRKESKLWSFIKKVFHDIKYANYRLLHNLRAFPGISAISSSYLVHIFMILLGVVAAIFLALLREKMFTAGFCDSGASGSSASILGISFPSLCRTCPPNAICPSPNYVECKPGYVLYEPWYSSLGFWPSKYCVSDTSREESVNIFREECLSVLRSWNAILHCSNNSSDLLERNMSYNAHPYVADNLNISSDHISFPSKPFALGLLHDTLLERKSPTLGLEMFEDLFKASLAVLSETNEVVMDSKLICYDSWAGIPLRCRLKQQLIKFVWRNKVFLFGILALSGVIFKLINFFRTRSIVAKYLPSASRFCVESLKRQKANYQMSRSQEPVIPLIEMHDILFHGNGPLEQIHMTKATARTLWEAIVERVEQVGSVRTRESEVDGEWTRVWEWVGTNTLDFQTDRSFINTTSPLRE | no binding
